A collection of fitness landscapes (doi:10.1016/j.celrep.2020.107928)
The full ranking holds about 81,000 sequences; the median of “one-hybrid fitness for binding NBS DNA” is about -0.1, and the highest 2% start at about 0.36. The list shows a part of the results.

B1: Caulobacter ParB omega fusion; a variant is named by its letters at X, in order, B8GW30 (parent)
chain: MESVVVGEPGMSEGRRGLGRGLSALLGEVDAAPAQAPGEQLGGSREAPIEILQRNPDQPRRTFREEDLEDLSNSIREKGVLQPILVRPSPDTAGEYQIVAGERAWRAAQRAGLKTVPIMVRELDDLAVLEIGIIENVQRADLNVLEEALSYKVLMEKFERTQENIAQTIGKSXSHVANXMRLLXLPDEVQSYLVSGELTAXHARAIAAAADPVALAKQIIEGGLSVRETEALARKAPNLSAGKSKGGRPPRVKDTDTQALESDLSSVLGLDVSIDHRGSTGTLTITYATLEQLDDLCNRLTRGI

Variants of: B1
Experiment: one-hybrid fitness for binding NBS DNA (the Noc-binding site; scaled: cognate 1, non-cognate 0); higher = stronger binding
Settings: with NBS DNA site
How it was run: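 Fitness here means the log change in variant-to-wild-type read ratio between plasmids sequenced before and after selection. That scale was set so cognate equals 1 and non-cognate equals 0. The selection was a bacterial one-hybrid screen of Caulobacter ParB libraries, four specificity codons randomised, in E. coli USO carrying a HIS3 reporter with the site 19 bp from the promoter, grown 48 hours at 37°C on M9-minus-histidine with 0.1 mM IPTG and 5 mM 3-AT.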

Row | Variant | one-hybrid fitness for binding NBS DNA
1 | MALA | ≤ 0.2
2 | QWNN | ≤ 0.2
3 | KTVT | ≤ 0.2
4 | YHAM | ≤ 0.2
5 | VQYW | ≤ 0.2
6 | MCHR | ≤ 0.2
7 | PPPF | ≤ 0.2
8 | GAET | ≤ 0.2
9 | NAAA | ≤ 0.2
10 | WKLV | ≤ 0.2
11 | VLIL | ≤ 0.2
12 | RPDQ | ≤ 0.2
13 | HHFI | ≤ 0.2
14 | PPYK | ≤ 0.2
15 | HHPC | ≤ 0.2
16 | RQYV | ≤ 0.2
17 | YAPC | ≤ 0.2
18 | QQVW | ≤ 0.2
19 | RWSQ | ≤ 0.2
20 | HRHF | ≤ 0.2
21 | GELG | ≤ 0.2
22 | KQAR | ≤ 0.2
23 | PFYC | ≤ 0.2
24 | QHRF | 0.284
25 | LSGG | ≤ 0.2

Row | Variant | one-hybrid fitness for binding NBS DNA
26 | DVDR | ≤ 0.2
27 | CDES | ≤ 0.2
28 | PGSM | ≤ 0.2
29 | QVTR | 0.38
30 | YHTG | ≤ 0.2
31 | RHVI | ≤ 0.2
32 | QRQP | 0.222
33 | TNFH | ≤ 0.2
34 | CAWW | ≤ 0.2
35 | GGAR | ≤ 0.2
36 | QKTT | 0.56
37 | GCRQ | ≤ 0.2
38 | KHLV | ≤ 0.2
39 | ILRK | ≤ 0.2
40 | KLSL | ≤ 0.2
41 | DDKV | ≤ 0.2
42 | QHVF | ≤ 0.2
43 | DYAQ | ≤ 0.2
44 | DNLD | ≤ 0.2
45 | VQAA | ≤ 0.2
46 | LVAH | ≤ 0.2
47 | KMEW | ≤ 0.2
48 | EVKS | ≤ 0.2
49 | GVTN | ≤ 0.2
50 | SPVQ | ≤ 0.2

Row | Variant | one-hybrid fitness for binding NBS DNA
51 | EARS | ≤ 0.2
52 | ELFT | ≤ 0.2
53 | YRKE | ≤ 0.2
54 | EGMI | ≤ 0.2
55 | RCAN | ≤ 0.2
56 | FVSG | ≤ 0.2
57 | THVG | ≤ 0.2
58 | LSER | ≤ 0.2
59 | NPRN | ≤ 0.2
60 | QNMG | ≤ 0.2
61 | KDLK | ≤ 0.2
62 | HMKW | ≤ 0.2
63 | EQDG | ≤ 0.2
64 | TGHR | ≤ 0.2
65 | FRKG | ≤ 0.2
66 | EFHA | ≤ 0.2
67 | SVTY | ≤ 0.2
68 | VIFV | ≤ 0.2
69 | IKKF | ≤ 0.2
70 | DKEY | ≤ 0.2
71 | MNGT | ≤ 0.2
72 | TFWG | ≤ 0.2
73 | KCWY | ≤ 0.2
74 | VHYK | ≤ 0.2
75 | NGHT | ≤ 0.2

Row | Variant | one-hybrid fitness for binding NBS DNA
76 | NPFR | ≤ 0.2
77 | ILPD | ≤ 0.2
78 | KRQW | ≤ 0.2
79 | IDMG | ≤ 0.2
80 | AYRR | ≤ 0.2
81 | WPDG | ≤ 0.2
82 | MPCS | ≤ 0.2
83 | SFYL | ≤ 0.2
84 | WMAV | ≤ 0.2
85 | FDGR | ≤ 0.2
86 | SRDG | ≤ 0.2
87 | HSAI | ≤ 0.2
88 | MTAC | ≤ 0.2
89 | SDCW | ≤ 0.2
90 | TMSI | ≤ 0.2
91 | SWIC | ≤ 0.2
92 | RYTI | ≤ 0.2
93 | WMVT | ≤ 0.2
94 | SMMH | ≤ 0.2
95 | NARY | ≤ 0.2
96 | QWPH | ≤ 0.2
97 | THPG | ≤ 0.2
98 | CSML | ≤ 0.2
99 | TDDV | ≤ 0.2
100 | LKTG | ≤ 0.2

Row | Variant | one-hybrid fitness for binding NBS DNA
101 | TPLV | ≤ 0.2
102 | RPLL | ≤ 0.2
103 | PKAN | ≤ 0.2
104 | RATA | ≤ 0.2
105 | FRCR | ≤ 0.2
106 | LPNG | ≤ 0.2
107 | GHAG | ≤ 0.2
108 | ICRY | ≤ 0.2
109 | HMQT | ≤ 0.2
110 | RVAK | ≤ 0.2
111 | DPDT | ≤ 0.2
112 | NQGL | ≤ 0.2
113 | HMEF | ≤ 0.2
114 | IIVR | ≤ 0.2
115 | DNSR | ≤ 0.2
116 | RQKQ | 0.244
117 | IYPR | 0.301
118 | QNWF | ≤ 0.2
119 | VQAE | ≤ 0.2
120 | MYAS | ≤ 0.2
121 | RMWP | ≤ 0.2
122 | KRRG | ≤ 0.2
123 | KVTK | ≤ 0.2
124 | VADG | ≤ 0.2
125 | TAQM | ≤ 0.2

Row | Variant | one-hybrid fitness for binding NBS DNA
126 | RFRE | ≤ 0.2
127 | GTCA | ≤ 0.2
128 | QCQA | 0.372
129 | EDNT | ≤ 0.2
130 | ATND | ≤ 0.2
131 | YNTG | ≤ 0.2
132 | MTWW | ≤ 0.2
133 | QTQP | ≤ 0.2
134 | VGDR | ≤ 0.2
135 | AWSG | ≤ 0.2
136 | VIAT | ≤ 0.2
137 | TRHV | ≤ 0.2
138 | PAQY | ≤ 0.2
139 | WTFS | ≤ 0.2
140 | GSPE | ≤ 0.2
141 | DSSK | ≤ 0.2
142 | YEHC | ≤ 0.2
143 | TYKA | ≤ 0.2
144 | PHHL | ≤ 0.2
145 | MQMG | ≤ 0.2
146 | LKHR | ≤ 0.2
147 | HRSA | ≤ 0.2
148 | CMLN | ≤ 0.2
149 | SGRK | ≤ 0.2
150 | CTQN | ≤ 0.2

Row | Variant | one-hybrid fitness for binding NBS DNA
151 | TLGE | ≤ 0.2
152 | ALSF | ≤ 0.2
153 | PHFG | ≤ 0.2
154 | VTMQ | ≤ 0.2
155 | YWLS | ≤ 0.2
156 | QQMS | 0.368
157 | HLHN | ≤ 0.2
158 | YKSD | ≤ 0.2
159 | HIYC | ≤ 0.2
160 | ASME | ≤ 0.2
161 | MWTV | ≤ 0.2
162 | EIGN | ≤ 0.2
163 | TTAN | ≤ 0.2
164 | YRAI | ≤ 0.2
165 | ISSL | ≤ 0.2
166 | PDYE | ≤ 0.2
167 | ETLW | ≤ 0.2
168 | YNIY | ≤ 0.2
169 | ALTM | ≤ 0.2
170 | GHHS | ≤ 0.2
171 | RMEN | ≤ 0.2
172 | QSVG | ≤ 0.2
173 | SPSK | ≤ 0.2
174 | DRDC | ≤ 0.2
175 | RTFE | ≤ 0.2

Row | Variant | one-hybrid fitness for binding NBS DNA
176 | KTRV | ≤ 0.2
177 | HAYF | ≤ 0.2
178 | FKPR | ≤ 0.2
179 | YGDI | ≤ 0.2
180 | WLLG | ≤ 0.2
181 | MRDV | ≤ 0.2
182 | AGMS | ≤ 0.2
183 | MGPT | ≤ 0.2
184 | WTVR | ≤ 0.2
185 | HYAS | ≤ 0.2
186 | FSEM | ≤ 0.2
187 | SRPM | ≤ 0.2
188 | KRVG | ≤ 0.2
189 | SYQC | ≤ 0.2
190 | KCRD | ≤ 0.2
191 | LMAI | ≤ 0.2
192 | PQRN | ≤ 0.2
193 | QRRQ | 0.496
194 | RKSC | 0.273
195 | ITDY | ≤ 0.2
